The other results are listed elsewhere or left out. Antibody binding of pooled human sera (four to six donors per pool; dilution not stated) to peptides of the Trypanosoma cruzi antigen TSSA on microarrays. Quantile-normalised fluorescence in arbitrary units, mean of duplicate arrays; higher = more binding. No active / inactive call. The uninfected pools are read here as the healthy donors of the same country. The strongest signals lie near the top of the scale (about 60,000).

The test deals with pooled sera of chronic Chagas disease patients, Argentina. Briefly: antibody binding signal (normalised fluorescence) (arbitrary fluorescence units); higher = stronger serum antibody binding to peptide. The protocol:
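Microarray of 15-residue peptides over residues 30-55 of Trypanosoma cruzi TSSAII, each with 1 to 10 substitutions at naturally variable positions, probed with one serum pool per country.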
GKDNKTATGGTPSPS yielded an antibody binding signal of 723. Sequence GKENKPATGGTPSQS showed an antibody binding signal of 1610.

As to PSGTDKKPAAGETPS, the antibody binding signal stood at 5010. In turn, KDNKPATGGTPSQSG came in with an antibody binding signal of 350.

With SGTDNKAAAGGAPSQ, the antibody binding signal stood at 278.

For the sequence GTDKKAATGGTPSPS, the antibody binding signal was 387. For TEKKAAAGGTPSQPG the value was 972; for KKPAAGGAPSPPGAS, 201; for TDNKPAAGEAPSQPG, 9560. The same measure for TENKTAAGGAPSPPG: 26000. For KDNKPAAGGAPSPPG the value was 177; for DNKPAAGGTPSQSGA, 238. Turning to GTENKPATGETPSQS, the antibody binding signal came to 42500. For PPSGKDKKPAAGGTP the value was 800. The sequence SGKDKKPATGEAPSP registered an antibody binding signal of 45000.

The sequence DNKTATGEAPSQSGA came in with an antibody binding signal of 14400. The same measure for TENKPATGGAPSQPG: 42000; for PSGKDKKPATGGAPS: 2940. Sequence EKKAAAGEAPSPPGA came in with an antibody binding signal of 1260. The same measure for TISTPPSGTENKTAT: 48500; for GTDNKTATGGTPSQS: 457; for SGTEKKTAAGETPSQ: 377. For SGKENKPATGGAPSQ the value was 5100; for SGTDKKTAAGETPSP, 182.

TPPSGTDKKTATGGT displayed an antibody binding signal of 21600.

As to GKEKKAATGGAPSQS, the antibody binding signal came to 3090. The same measure for GKDKKAAAGEAPSPP: 370. The same measure for KKTAAGEAPSQPGAS: 1700. The same measure for KKTAAGGTPSQSGAS: 234; for PPSGKDKKPAAGGAP: 805. GTDNKTAAGGTPSPP yielded an antibody binding signal of 1250. The same measure for SGTDNKAAAGEAPSQ: 474. For KDKKPATGETPSQSG the value was 23700. The same measure for PSGKDKKAATGETPS: 2590.

Sequence ENKTATGETPSQSGA gave an antibody binding signal of 902.

Take SGTDKKTATGGAPSP: the antibody binding signal worked out at 2560. With GTDKKPATGGAPSQS, the antibody binding signal worked out at 1180.

TDNKTAAGGTPSQSG: the antibody binding signal amounted to 1440. Consider PSGTENKAAAGEAPS, for which the antibody binding signal came out at 48900.

KDNKAATGETPSPPG returned an antibody binding signal of 1840.

For the origin of these results see the supplement of paper PMC10441789.
